In the RNAGym collection of RNA variant scans (doi:10.1093/nar/gkz1192):
The source gives no read counts; variants with many changes may rest on few reads.

B1: CPEB3 Ribozyme (parent)
chain: UAACAGGGGGCCACAGCAGAAGCGUUCACGUCGCAGCCCCUGUCAGAUUCUGGUGAAUCUGCGAAUUCUGCUGUAUAUCUC

Variants of: B1
Assay: self-cleavage, relative activity (ratio to wild type); higher = more cleavage; in vitro, sequencing
Procedure, shortened: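 Libraries of CPEB3 self-cleaving ribozyme mutants came from rounds of error-prone PCR and carried barcodes, which DNA sequencing matched to variants. In vitro transcription used T7 RNA polymerase at 37°C for 5 hours, with a further 15 min in DNase I before EDTA stopped the reaction; the ribozymes cleaved during both steps. The RNA was reverse transcribed with template switching and sequenced on Illumina. Relative activity is the cleaved/total read fraction of a variant divided by that of the unmutated ribozyme, averaged over three batches with at least 5 reads.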

| Variant | self-cleavage |
| --- | --- |
| UAACAGGGGGCUACAGCAGAAGCGUUCACGUCGCACCCCCUGUCAGAUUCUGGUGAAUCUGCGAAUUCUGCUGUAUACCAC [C12U G36C U78C U80A] | 0.16 |
| UAACAGGGGGCUACAGCAGAAGCGUUCACGUCGCAGCCCCUGUCAGAUUCUGGCGAAUCUGCGAAUUCUGCAGUAUAUCUC [C12U U54C U72A] | 1.27 |
| UAACAGGGGGCUACAGCAGAAGCGUUCACGUCGCAGCCCCCGUCAGAUUCAGGUGAAUCUGCGAACUCUGCCGUAUAUCUC [C12U U41C U51A U66C U72C] | 1.09 |
| UAACAGGGGGCUACAGCAGAAGCGUUCAUGUCGCAGCCCCUGUCUGAUUCUGGUGAAUCUGCGAAUUCUGCUGUAUACCUC [C12U C29U A45U U78C] | 0.14 |
| UAACAGGGGGCUACAGCAGAAGCGCUCACGUCGCAGCCCCUGUCAGAUUCUGGUGAGUCUGCGAAUUCUGCUGUAUAUCCC [C12U U25C A57G U80C] | 0.3 |
| UAACAGGGGGCUACAGCAGAAGCGUUCACGACGCAGCCCCUGACAGAUUCUGGUGAAUCUGCGAAUUCUGCUGUAUAUCUC [C12U U31A U43A] | 0.87 |
| UAACAGGGGGCUACAGCAGAAGCGUUCACGUCGCAGCCCCCGUCAGAUUCAGGUGAACCUGCGAAUUCUGCCGUAUAUCUC [C12U U41C U51A U58C U72C] | 0.96 |
| UAACAGGGGGCUACAGCAGAAGCGUCCACGUGGCAGCCCCUGCCGGAUUCUGGUGAAUCUGCGAAUUCUGCUGUAUAUCUC [C12U U26C C32G U43C A45G] | 0.16 |
| UAACAGGGGGCUACAGCAGAAGCGUUCACGCCGCAGCGCCUGUCAGAUUCUGGUGGAUCUGCGAAAUCUGCCGUAUAUCCC [C12U U31C C38G A56G U66A U72C U80C] | 0.04 |
| UAACAGGGGGCUACAGCAAGAGCGUUCACGUCGCAGCCCCUGUCGGAUUCUGGUGAGUCUGCGAAUUCUGCUUUAUAUCUC [C12U G19A A20G A45G A57G G73U] | 0.63 |
| UAACAGGGGGCUACAGCAGAAGCAUCCGCGUCGCAGCUCCUGUCAGAUUCUGGUGAAUCUGCGAAUUCCGCUGGAUAUCUC [C12U G24A U26C A28G C38U U69C U74G] | 0.06 |
| UAACAGGGGGCUACAGCAGAAGCGUUCACGUCGCAGCCCCUGUCAGAUUCUGGUGAAUAUGCGAAUUCAGCUGCAUAUCUC [C12U C59A U69A U74C] | 0.43 |
| UAACAGGGGGCUACAGCAGAAGCGUUCACGGCGCAGCCCCGGUCAGACUCAGGAGAAUCUGCGAAUUCUGCUGUAUAUCUC [C12U U31G U41G U48C U51A U54A] | 0.05 |
| UAACAGGGGGCUACAGCAGAAGCGUUCACGUCACAGCCCCUGUCAGAUUCUGGUGAAUCUGCGAAUUCGGCUAUAUAUCUC [C12U G33A U69G G73A] | 0.1 |
| UAACAGGGGGCUACAGCAGAAGCGUUCACGUUGCAGCCCCUGUCAGAUUCUGGUGGAUCUGCGAAUUCUGCUGUAUAUCUC [C12U C32U A56G] | 0.08 |
| UAACAGGGGGCUACAGCAGAAGCGUUCACGUCGCAGCCCCCGUCGGUCUCUGGUGAAUCUGCGAAUUCUGCUGUAUAACUC [C12U U41C A45G A47U U48C U78A] | 0.09 |
| UAACAGGGGGCCCCGUCAGAAGCGUUCACGUCGCAGCCCCUGUCAGAUUCUGGUGAAUCUGCGAAUUCUGCAGUAUAUCUC [A13C A15G G16U U72A] | 0.21 |

| Variant | self-cleavage |
| --- | --- |
| UAACAGGGGGCUACAGCAGAAGCGUUCACGUCGCAGCCCCUGUCAGAUUCCGGUGAAUCUGCGAGUUCUGCAGUAUAUCUC [C12U U51C A65G U72A] | 0.91 |
| UAACAGGGGGCUACAGCAGAAGCGUUCACGUCGCAGCCCCUGUCAGAAUCUGGAGAAUCUGCGAAUUCUGCCGUAUAUCUC [C12U U48A U54A U72C] | 0.86 |
| UAACAGGGGGCUACAGCAGAAGCGCUCACGUCGCAGCCCCUGUCAGCUUCUGGUGAAUCUGCGAAUUCUGCUGUAUAUCUC [C12U U25C A47C] | 0.32 |
| UAACAGGGGGCCCCCGCAGAAGCGUUCACGUCGCAGCCCCUGUCAGAUUCUGGUGAGUCUGCGAAUUCUGCUGUAUAUCUC [A13C A15C A57G] | 0.47 |
| UAACAGGGGGCUACAGCAGAAGCGUCCACGUCGCAGCCCCUGUCGGAUUCUGGUGAAUCUGCGAAUUCUGCUGUAUAUCUC [C12U U26C A45G] | 0.36 |
| UAACAGGGGGCUACAGCAGAAGCGUUCACGUCGCAGCCCCAGUUAGAUUCUGGUGACUCUGCGAAUUCUGCUGUAAAUCAC [C12U U41A C44U A57C U76A U80A] | 0.02 |
| UAACAGGGGGCUACAGCAGAAGCGUUCACGCCGCAGCCCCAGUCAGAUUCUGGUGAAUCUGCGAGUUCUGCUGUAUAUCUC [C12U U31C U41A A65G] | 0.07 |
| UAACAGGGGGCUACAGCAGAAGCGUUCACGUAGCAGCCCCUGACAGAUUCUGGUGAAUCUGCGAACUCUGCUGUAUAUCUC [C12U C32A U43A U66C] | 0.06 |
| UAACAGGGGGCUACAGCAGAAGCGUCCACGUCGCAGCCCCCGCCAGAUUCUGGUGAAUCUGCGUAUUCUGCUGUAUAUCUC [C12U U26C U41C U43C A64U] | 0.26 |
| UAACAGGGGGCUACAGCACAGGCGUUCACGUCGCAGCCCCUGUCAGAUUCUGGUGAAUCUGCGAAUUCUGCAGUAUAUCUC [C12U G19C A21G U72A] | 0.06 |
| UAACAGGGGGCUACAGCAGAAGCGUUCACGUCGCAGCCCCUGUCAGAUUCUGGUGAAUCUGCUAAUUCUGCUGUAUGUCUC [C12U G63U A77G] | 1.24 |
| UAACAGGGGGCUACAGCAGAAGCGUUCACGUCGCAGCCCCUGUCAGAUUCUGGUGAAUCUGCGAAUUCUGCUGUAUACCCC [C12U U78C U80C] | 0.94 |
| UAACAGGGGGCUACAGCAGAACCGUUCAUGUCGCGGCCCCUGUCAGAUUCUGGUGAAUCUGCGAAUUCUGCUGUAUAUCUC [C12U G22C C29U A35G] | 0.07 |
| UAACAGGGGGCUACAGCAGAAGCGUUCACGUCGCAGCCCCUGUCAGAUUCCGGUGAAUCUGCGAUUUCUGCUGUAUAUCUC [C12U U51C A65U] | 0.26 |
| UAACAGGGGGCCCCGGCAGAAGCGUUCACGUCGCAGCCCCUGUCAGAUUCUGGUGGAUCUGCGAAUUCUGCUGUAUAUCUC [A13C A15G A56G] | 0.66 |
| UAACAGGGGGCUACAGCAGAAGCGUUCACGUCGCAGCCCCUGUCAGACUCAGGUGAAUCUGUGAAUUCUGCUGUAUAUCUC [C12U U48C U51A C62U] | 0.39 |
| UAACAGGGGGCUACAGCAGAAGCGGUCACGUCGCAGUCCCUGUCAGAUUCUGGUGAAUCUGCGUAUUCUGCUGUAUAUCUC [C12U U25G C37U A64U] | 0.13 |
